Assay results: PubChem BioAssay AID1768 (National Center for Advancing Translational Sciences (NCATS), 2009)
The whole screen tested about 270,000 compounds, of which about 620 (0.23%) were called active. Inconclusive means that the source gave no clear call. Such entries were picked first, then a sample of the others. Calls follow the shape of the dose curve; as a rule, active = well fitted inhibition curve with a large enough effect in the polarisation, with a control signal flat (not every such curve was filed as active); inconclusive = small, poorly fitted or top-dose-only effect, or effect the other way, or a change in a side signal; inactive = no such curve, though single readings can be large or run the other way; the % refers to the polarisation. Where the call is inconclusive, the potency comes from a doubtful curve fit. A note “side channel” means that the fit belongs to a control or component signal, not to the main read-out.

molecular target: Menin (Homo sapiens) (UniProt O00255); assay: qHTS Assay for Inhibitors Targeting the Menin-MLL Interaction in MLL Related Leukemias: Competition With Texas Red Labeled MLL-derived Mutant Peptide; conditions: fluorescence polarization; series mostly up to 61.6 µM
Sequence of UniProt O00255 (O00255 whole entry, looked up): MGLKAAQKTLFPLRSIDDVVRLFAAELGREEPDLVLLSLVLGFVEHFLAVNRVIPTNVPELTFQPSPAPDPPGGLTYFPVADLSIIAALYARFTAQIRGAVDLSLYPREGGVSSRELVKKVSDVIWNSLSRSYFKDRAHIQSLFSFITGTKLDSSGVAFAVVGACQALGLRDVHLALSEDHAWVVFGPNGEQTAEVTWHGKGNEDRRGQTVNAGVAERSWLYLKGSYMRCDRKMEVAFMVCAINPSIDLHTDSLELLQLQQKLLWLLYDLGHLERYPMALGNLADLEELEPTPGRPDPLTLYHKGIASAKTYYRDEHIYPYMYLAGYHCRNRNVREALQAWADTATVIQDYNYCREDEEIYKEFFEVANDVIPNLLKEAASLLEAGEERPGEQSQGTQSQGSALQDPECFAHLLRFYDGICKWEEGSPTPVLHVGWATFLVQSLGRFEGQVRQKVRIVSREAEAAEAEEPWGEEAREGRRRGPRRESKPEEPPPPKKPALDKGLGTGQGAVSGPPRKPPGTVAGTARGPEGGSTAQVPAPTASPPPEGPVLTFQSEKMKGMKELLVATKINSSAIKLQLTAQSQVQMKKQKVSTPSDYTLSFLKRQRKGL
Potency is read from the fitted curve at half-maximal effect; tags tell the direction and shape of the fitted curve or compound fluorescence and quenching.

Potency, inconclusive:
Cc1ccc(C(=O)Nn2cnc3scc(-c4cccs4)c3c2=O)c(O)c1 39.8 µM [quencher, side channel, single point]
COc1cc(/C=N/n2c(C3CCCCC3)n[nH]c2=S)cc(Br)c1O 39.8 µM [quencher, side channel, single point]
Cc1ccc(COc2ccc(S(=O)(=O)N3CCCC3)cc2C(N)=O)cc1 31.6 µM [fluorescent, side channel, single point]
Nc1n[nH]c(N)c1N=Nc1ccc(F)cc1 22.4 µM [quencher, side channel, partial curve]
CCCNC(=O)c1c(N)n(-c2ccc3c(c2)OCO3)c2nc3ccccc3nc12 31.6 µM [quencher, side channel, single point]
O=C(OCc1ccccc1)N1CCOCCOCCN(C(=O)OCc2ccccc2)CCOCCOCC1 3.16 µM [inhibitor, partial curve]
Nc1cc2c([N+](=O)[O-])cccc2o1 20 µM [quencher, side channel, partial curve]
CN(c1ccc(C(=O)Nc2nccs2)cc1)S(=O)(=O)c1ccccc1 11.2 µM [quencher, side channel, partial curve]
Cc1ccc(S(=O)(=O)NCCNC(=O)c2cc(OCC(F)(F)F)ccc2OCC(F)(F)F)cc1 39.8 µM [fluorescent, side channel, single point]
O=C(Nc1ccc2oc(-c3ccccc3)nc2c1)c1cccs1 11.2 µM [quencher, side channel, partial curve]
CCCCCCC1CC(CC(=O)Nc2ccc([N+](=O)[O-])cc2)C(=O)O1 (configuration not stated) 11.2 µM [quencher, side channel, partial curve]
COc1cc(CNCc2ccccc2)c(Br)cc1OC1CCCC1 35.5 µM [inhibitor, single point]
COc1ccc(C(=O)Nc2ccc(-c3n[nH]c(=S)o3)cc2)cc1 25.1 µM [quencher, side channel, single point]
O=C(Nc1ccc(O)c2c(=O)cc(-c3ccccc3Cl)oc12)c1ccc(Br)cc1 28.2 µM [quencher, side channel, single point]
COc1cc(C(=O)Nc2ccc(Nc3ccccc3)cc2)cc(OC)c1OC 15.8 µM [quencher, side channel, partial curve]
COc1ccc(OC)c(CN2CCC(Cc3ccccc3)CC2)c1 25.1 µM [inhibitor, single point]
Brc1ccc(Nc2nc(-c3cccnc3)cs2)cc1 35.5 µM [quencher, side channel, single point]
CCc1ccc(N=C2NC(=O)/C(=C/c3cc(Br)c(OCC(=O)O)c(OC)c3)S2)cc1 8.91 µM [quencher, side channel, full curve]
O=C(O)Cc1ccc(N=Nc2c(O)c(C(=O)O)cc3ccccc23)cc1 25.1 µM [quencher, side channel, single point]
CCc1sc(C(=O)Nc2nccs2)cc1C 39.8 µM [quencher, single point]
Sc1oc(-c2ccccc2)cc1C=Nc1ccccc1 28.2 µM [quencher, side channel, partial curve]
COC(=O)C1C(=O)NC(SC)=C(C#N)C1c1ccccc1 (configuration not stated) 4.47 µM [inhibitor, single point]
COCC(=O)Nc1cc(C)cn(Cc2c(F)cccc2Cl)c1=O 3.16 µM [inhibitor, partial curve]
O=C(COC(=O)c1cccc(Br)c1)Nc1cccc2c1C(=O)c1ccccc1C2=O 10 µM [quencher, side channel, partial curve]
COc1ccc(Nc2oc(-c3ccc(Cl)cc3)nc2C#N)cc1 15.8 µM [quencher, side channel, single point]
Cc1ccc2c(c1)-c1c(cnn1CC(=O)O)CO2 25.1 µM [inhibitor, partial curve, poor fit]
COC(=O)c1cc(S(=O)(=O)NC2CCN(Cc3ccccc3)CC2)cn1C 3.55 µM [inhibitor, partial curve]
Cc1ccc(S(=O)(=O)/N=S(/C)c2ccccc2)cc1 (configuration not stated) 39.8 µM [inhibitor, single point]
COc1ccc(NC(=O)c2nc3ccccc3s2)cc1 39.8 µM [quencher, side channel, single point]
O=C1C(=O)N(CCCO)C(c2ccc(Br)cc2)/C1=C(\O)c1ccc(Br)cc1 (configuration not stated) 22.4 µM [quencher, side channel, single point]
COc1cc(NC(=O)c2ccc(COCC(F)(F)F)cc2)cc(OC)c1OC 39.8 µM [quencher, side channel, single point]
Cc1ccc(S(=O)(=O)N/N=C\c2cn(CC(N)=O)c3ccccc23)cc1C 31.6 µM [quencher, side channel, single point]
COc1cc(-c2nc3c(c(C)nn3-c3ccccc3)c3cc(OC)c(OC)cc23)ccc1O 0.631 µM [quencher, side channel, full curve, poor fit]
O=C(CNC(=O)c1ccccc1Br)N/N=C\c1cc([N+](=O)[O-])cc(Br)c1O 25.1 µM [quencher, side channel, partial curve]

Potency, inactive:
CCOC(=O)CNC(=O)O[C@@H]1C(=O)c2ccc(OC)cc2O[C@H]1c1ccc2c(c1)OCO2
CCOC(=O)N1CCC(N2CCN(S(=O)(=O)CC)CC2)CC1
CC(C)(C)c1nc2c(C#N)c(-c3ccc(Cl)cc3)ccn2n1
